Values marked as one replicate rest on one cluster of the flow cell; about a third of the high ones do not repeat.
These sequences were tested on ATP (assay: switch fluorescence ratio, 500 uM ATP over buffer (Cy3 cluster intensity, sum of 5 cycles each) (fold (ratio)); higher = stronger signal-on switching upon ATP binding; sequences stand for … in TCGTCGGCAGCGTCAGATGTGTATAAGAGACAGTTTTTTTTTTTTTTTTTTTTTTTTT…TC). Details: aptamer strand: ATP DNA aptamer (quencher-CACCTGGGGGAGTATTGCGGAGGAAGG + anchor), 100 nM annealed; ATP concentration: 500 uM; one replicate.
Outline: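 Per cluster, summed Cy3 intensity from the target cycles was divided by that from the buffer cycles to give the fluorescence ratio, then averaged per switch-domain sequence. Clusters outside 100-1000 RFU were excluded. The Cy3-labelled switching-strand clusters, on a modified Illumina MiSeq flow-cell, were annealed to 100 nM quencher-labelled ATP aptamer and imaged in selection buffer, then after 15 min with 500 uM ATP at 22 °C, for five cycles with NaOH stripping and re-annealing between them.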
GGACGCCTGG was tested, and the switch fluorescence ratio was 0.957. GGACGTCCTT showed a switch fluorescence ratio of 1.01. With GGACGTTATG the switch fluorescence ratio was 0.963. GGACGTTCAT gave a switch fluorescence ratio of 1.02. GGACGTTGCA gave a switch fluorescence ratio of 1.04. Sequence GGACTATTAC has a switch fluorescence ratio of 1.13. GGACTCTAG showed a switch fluorescence ratio of 0.981. GGACTTTGAT showed a switch fluorescence ratio of 1.04. GGAGAGCAGA showed a switch fluorescence ratio of 1. Work on GGAGAGTTAC yielded a switch fluorescence ratio of 0.994. For GGAGAGTTTT, the switch fluorescence ratio was 0.964. In the case of GGAGATTGAG, the switch fluorescence ratio is reported as 1.03. Work on GGAGCAAGGT yielded a switch fluorescence ratio of 3.81. In the case of GGAGCAGAAG, the switch fluorescence ratio is reported as 2.31. For GGAGCAGCCG, the switch fluorescence ratio was 1.1. Sequence GGAGCCGTGG has a switch fluorescence ratio of 1. Work on GGAGCCTG yielded a switch fluorescence ratio of 1.11. GGAGCTACGA was tested, and the switch fluorescence ratio was 1.31. GGAGCTCAGA showed a switch fluorescence ratio of 1.06. GGAGCTTCGG showed a switch fluorescence ratio of 0.96. GGAGGAACTT gave a switch fluorescence ratio of 1.04. GGAGGCGTTA showed a switch fluorescence ratio of 1.01. Sequence GGAGGCTTAA has a switch fluorescence ratio of 1.05. In the case of GGAGGTGCAT, the switch fluorescence ratio is reported as 1.05. GGAGTAGGTT showed a switch fluorescence ratio of 0.99. With GGAGTCCACC the switch fluorescence ratio was 0.975. In the case of GGAGTCCAGT, the switch fluorescence ratio is reported as 0.989. Work on GGAGTCGAG yielded a switch fluorescence ratio of 0.996. Work on GGAGTCGATC yielded a switch fluorescence ratio of 1.09. Sequence GGAGTCTTTG has a switch fluorescence ratio of 1.04. Work on GGAGTGCGCG yielded a switch fluorescence ratio of 0.966. For GGAGTGGAAG, the switch fluorescence ratio was 0.976. GGAGTTAGCA gave a switch fluorescence ratio of 1.02. With GGAGTTCCTA the switch fluorescence ratio was 0.994. Sequence GGAGTTCGAT has a switch fluorescence ratio of 0.977. In the case of GGAGTTGTCC, the switch fluorescence ratio is reported as 0.963. For GGAGTTTGTC, the switch fluorescence ratio was 0.943. Sequence GGATAATACA has a switch fluorescence ratio of 0.992. In the case of GGATACATGG, the switch fluorescence ratio is reported as 1.06. GGATAGCTAC gave a switch fluorescence ratio of 1.18. Sequence GGATAGGTTC has a switch fluorescence ratio of 1.16. Work on GGATAGT yielded a switch fluorescence ratio of 0.985. GGATAGTGCA was tested, and the switch fluorescence ratio was 0.994. Sequence GGATATATGA has a switch fluorescence ratio of 1.02. GGATATCCGA was tested, and the switch fluorescence ratio was 0.968. In the case of GGATATTGGT, the switch fluorescence ratio is reported as 1.03. In the case of GGATCAAAGA, the switch fluorescence ratio is reported as 0.872. Work on GGATCAAGGA yielded a switch fluorescence ratio of 1.02. Sequence GGATCCGGTA has a switch fluorescence ratio of 1.04. GGATCGGCGG was tested, and the switch fluorescence ratio was 1.03. In the case of GGATCGTACT, the switch fluorescence ratio is reported as 1.05. GGATGAATGC gave a switch fluorescence ratio of 0.956. For GGATGAGACG, the switch fluorescence ratio was 1.07. With GGATGAGGAT the switch fluorescence ratio was 0.95. GGATGATCCT was tested, and the switch fluorescence ratio was 1.01. With GGATGCATGT the switch fluorescence ratio was 0.967. GGATGCGCGT was tested, and the switch fluorescence ratio was 0.987. In the case of GGATGTAACG, the switch fluorescence ratio is reported as 1.03. GGATGTTGGA was tested, and the switch fluorescence ratio was 0.953. Work on GGATTAAGAT yielded a switch fluorescence ratio of 0.988. Work on GGATTAGGAC yielded a switch fluorescence ratio of 1.03. GGATTATATG showed a switch fluorescence ratio of 0.978. GGATTGATTG showed a switch fluorescence ratio of 1.01. GGATTGCTGT showed a switch fluorescence ratio of 1.01. GGATTTCGCG showed a switch fluorescence ratio of 0.972. Sequence GGATTTGCTT has a switch fluorescence ratio of 0.944. With GGCAAAGGTG the switch fluorescence ratio was 1.48. In the case of GGCAACGGGA, the switch fluorescence ratio is reported as 0.982. GGCACACTAG showed a switch fluorescence ratio of 0.994. In the case of GGCACTCCTG, the switch fluorescence ratio is reported as 1. With GGCACTTGGC the switch fluorescence ratio was 1.08. GGCAGACAAA showed a switch fluorescence ratio of 0.973. For GGCAGCAAGA, the switch fluorescence ratio was 2.02. Work on GGCAGCCTGT yielded a switch fluorescence ratio of 0.97. GGCAGCGATG showed a switch fluorescence ratio of 0.971. GGCAGGATCA gave a switch fluorescence ratio of 0.999. GGCAGGTATG was tested, and the switch fluorescence ratio was 0.994. GGCAGGTGGG was tested, and the switch fluorescence ratio was 1.1. Work on GGCAGTGTAT yielded a switch fluorescence ratio of 1.01. GGCATCCTC was tested, and the switch fluorescence ratio was 1.05. In the case of GGCATCTTGT, the switch fluorescence ratio is reported as 0.987. Sequence GGCATGGAGA has a switch fluorescence ratio of 1.03. Work on GGCATGTTCC yielded a switch fluorescence ratio of 1.09. GGCATTATGT gave a switch fluorescence ratio of 1.03. Sequence GGCATTCCTT has a switch fluorescence ratio of 1.01. GGCCAAATAG gave a switch fluorescence ratio of 0.989. GGCCACAATG was tested, and the switch fluorescence ratio was 1.01. Work on GGCCACAGGC yielded a switch fluorescence ratio of 0.979. GGCCACATGA gave a switch fluorescence ratio of 1.05. GGCCACCGAA was tested, and the switch fluorescence ratio was 1. GGCCACGCGA gave a switch fluorescence ratio of 1.13. GGCCAGCCTG showed a switch fluorescence ratio of 0.979. GGCCAGGCAG was tested, and the switch fluorescence ratio was 1.06. GGCCAGGCTG was tested, and the switch fluorescence ratio was 1.04. For GGCCCATTGA, the switch fluorescence ratio was 1.02. Work on GGCCCCCCCC yielded a switch fluorescence ratio of 1.05. GGCCCCCGCA gave a switch fluorescence ratio of 1.76. GGCCCGCAAG gave a switch fluorescence ratio of 5.07. GGCCGACCGC showed a switch fluorescence ratio of 1.4. Sequence GGCCGCGTTT has a switch fluorescence ratio of 1. Sequence GGCCGCTGAA has a switch fluorescence ratio of 0.999. With GGCCGCTGAC the switch fluorescence ratio was 3.03. Work on GGCCGGCTTG yielded a switch fluorescence ratio of 1.03. For GGCCGGGGCA, the switch fluorescence ratio was 0.96. For GGCCGGGTCT, the switch fluorescence ratio was 1.04. GGCCGTCTGC showed a switch fluorescence ratio of 0.984. Sequence GGCCTAGAAC has a switch fluorescence ratio of 0.992. In the case of GGCCTATCCG, the switch fluorescence ratio is reported as 0.998. GGCCTCGTGA was tested, and the switch fluorescence ratio was 1.04. With GGCCTTCTCG the switch fluorescence ratio was 1.34. GGCGAAAGAA showed a switch fluorescence ratio of 0.978. GGCGAAGACT showed a switch fluorescence ratio of 0.987. GGCGACACTA gave a switch fluorescence ratio of 1.13. With GGCGACTCTC the switch fluorescence ratio was 1.04. With GGCGACTGGA the switch fluorescence ratio was 1.02. With GGCGAGCGTG the switch fluorescence ratio was 0.989. In the case of GGCGATACAC, the switch fluorescence ratio is reported as 1.38. GGCGATCACA showed a switch fluorescence ratio of 0.964. With GGCGATCGAC the switch fluorescence ratio was 0.97. With GGCGATGGCT the switch fluorescence ratio was 1.01. For GGCGATTAAG, the switch fluorescence ratio was 1.05. GGCGCATGGG gave a switch fluorescence ratio of 0.989. GGCGCCAGTA was tested, and the switch fluorescence ratio was 0.865. Sequence GGCGCCCCGT has a switch fluorescence ratio of 1.02. GGCGCCGAGT showed a switch fluorescence ratio of 0.972. GGCGCCGGTG gave a switch fluorescence ratio of 0.985. For GGCGCGTGGG, the switch fluorescence ratio was 1.06. GGCGCTCCGA was tested, and the switch fluorescence ratio was 1.04. GGCGGAGGTC was tested, and the switch fluorescence ratio was 1.01. Sequence GGCGGAGGTT has a switch fluorescence ratio of 0.964. GGCGGCCGAA showed a switch fluorescence ratio of 1. For GGCGGCGAGC, the switch fluorescence ratio was 1.02. GGCGGCGCTT showed a switch fluorescence ratio of 0.951. For GGCGGGACCT, the switch fluorescence ratio was 1.03. In the case of GGCGGGGACT, the switch fluorescence ratio is reported as 1.01. For GGCGGTAAGT, the switch fluorescence ratio was 0.961. Work on GGCGGTACTT yielded a switch fluorescence ratio of 1.04. For GGCGGTCGC, the switch fluorescence ratio was 1.01. In the case of GGCGGTCTTA, the switch fluorescence ratio is reported as 0.988. GGCGTAAGG showed a switch fluorescence ratio of 1.02. Sequence GGCGTACAAG has a switch fluorescence ratio of 0.968. For GGCGTAGACA, the switch fluorescence ratio was 1. In the case of GGCGTAGGCG, the switch fluorescence ratio is reported as 1.02. With GGCGTAGTAG the switch fluorescence ratio was 0.996. GGCGTCGACA gave a switch fluorescence ratio of 1.03. In the case of GGCGTTATCA, the switch fluorescence ratio is reported as 0.968. GGCGTTGAGG gave a switch fluorescence ratio of 1.01. With GGCTAACATG the switch fluorescence ratio was 1.04. Work on GGCTAAGACG yielded a switch fluorescence ratio of 1.05. GGCTAATATT gave a switch fluorescence ratio of 1.02. For GGCTACAAAA, the switch fluorescence ratio was 0.952. Work on GGCTACACGG yielded a switch fluorescence ratio of 1.11. With GGCTACAGTA the switch fluorescence ratio was 1.11.

Reference: the supplement of paper PMC10126150
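Note: ATP exposure 15 min at 22 °C before imaging.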
